# Measurements taken from PubChem BioAssay (Tox21).
# The inconclusive results got no clear call from the source; some entries with a clear call stand among them for comparison. For part of these data: Potencies of inconclusive entries are left out as doubtful fits. Calls of active or inactive are those of the source. Calls come from the whole dose curve; as a rule, active = well fitted curve in the direction sought with a large enough effect in the repeat runs; inconclusive = weak or mixed curves; inactive = no such curve, though single readings can be large; an effect the other way counts as inactive or inconclusive.
# Tests used:
# [1] = qHTS RealTime-Glo MT Cell Viability Assay in HEK293 cells - 16 hour (AID 1224872); details: RealTime-Glo luminescence; series mostly up to 76.8 µM; note: nearly all actives have a fitted effect of over 50% in size
# Outline: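 Reads taken at 0, 8, 16, 24, 32 and 40 h from the same wells. HEK293 cells (600/well) carried RealTime-Glo reagents from seeding, with compound added after a 5 h settle at 37 C.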
# [2] = qHTS RealTime-Glo MT Cell Viability Assay in HEK293 cells - 40 hour (AID 1224874); details: RealTime-Glo luminescence; max response: stronger effect = lower value; note: nearly all actives have a fitted effect of over 50% in size
# Outline: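 Tox21 screen in HEK293 using RealTime-Glo MT chemistry, with cells and reagent co-dispensed. Luminescence proportional to viable cell number was captured at intervals during 40 h compound exposure at 37 C.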
# [3] = qHTS RealTime-Glo MT Cell Viability Assay in HepG2 cells - 8 hour (AID 1224873); details: RealTime-Glo luminescence; series mostly up to 76.8 µM; note: nearly all actives have a fitted effect of over 55% in size
# Outline: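 Real-time viability: cells seeded at 600 per well together with NanoLuc and cell-permeant prosubstrate, compounds added after 5 h incubation. Luminescence tracked at 0, 8, 16, 24, 32 and 40 h of exposure.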
# [4] = A CellTox Green Cytotoxicity Assay to monitor cytotoxicity in HEK293 cells - 24 hour (AID 1224875); details: CellTox Green fluorescence; series mostly up to 76.8 µM; note: nearly all actives have a fitted effect of over 45% in size
# Outline: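 Seeding of HEK293 cells together with cytotoxicity dye preceded a 5 h incubation at 37 C/5% CO2. Test compounds in DMSO were then added and fluorescence monitored across 40 h.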
# [5] = A CellTox Green Cytotoxicity Assay to monitor cytotoxicity in HepG2 cells - 40 hour (AID 1224879); details: CellTox Green fluorescence; series mostly up to 76.8 µM; note: nearly all actives have a fitted effect of over 40% in size
# Outline: (§1)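 Nonlytic assay: viable cells exclude the dye, so fluorescence scales with cell death. HepG2 at 600 cells/well, compounds added after 5 h, signal read across 40 h.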
# [6] = qHTS RealTime-Glo MT Cell Viability Assay in HepG2 cells - 32 hour (AID 1224877); details: RealTime-Glo luminescence; series mostly up to 76.8 µM; note: nearly all actives have a fitted effect of over 55% in size
# Outline: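 HepG2 suspension premixed with RealTime-Glo reagents is plated at 600 cells per well and left 5 h at 37 C/5% CO2. Compounds in DMSO then go in, and bioluminescence reflecting viable cell number is recorded over 40 h.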
# [7] = A CellTox Green Cytotoxicity Assay to monitor cytotoxicity in HepG2 cells - 24 hour (AID 1224878); details: CellTox Green fluorescence; series mostly up to 76.8 µM; note: nearly all actives have a fitted effect of over 45% in size
# Outline: as §1
# [8] = A CellTox Green Cytotoxicity Assay to monitor cytotoxicity in HepG2 cells - 16 hour (AID 1224876); details: CellTox Green fluorescence; series mostly up to 76.8 µM; note: nearly all actives have a fitted effect of over 45% in size
# Outline: as §1
# Potency is the fitted concentration of half-maximal effect; tags give direction and shape of the fitted curve.
smiles,measurement,setting,value
O=C(O)C(O)[C@H](O)[C@@H](O)[C@H](O)[C@H](O)CO (stereo partly drawn),Potency,[1],inactive
same,Potency,[2],"inconclusive [cytotoxic, partial curve, poor fit]"
O=c1oc2cc(O)ccc2c2oc3cc(O)ccc3c12,Potency,[1],active: 21 µM
same,Potency,[2],"inconclusive [cytotoxic, partial curve]"
CC(=O)c1c(C)cc(C(C)(C)C)cc1C,Potency,[1],"inconclusive [cytotoxic, partial curve]"
same,Potency,[2],"inconclusive [cytotoxic, partial curve]"
COc1cc(C(=O)NC2CCN(C)CC2)ccc1Nc1ncc2c(n1)N(C1CCCC1)CC(F)(F)C(=O)N2C,Potency,[1],active: 2 µM
same,Potency,[3],"inconclusive [falling, partial curve]"
same,Potency,[4],active: 20 µM
same,Potency,[5],active: 22.5 µM
O=C1OC2(c3ccc(O)cc3Oc3cc(O)ccc32)c2ccc(N=C=S)cc21,Potency,[1],"inconclusive [cytotoxic, single point]"
same,Potency,[3],"inconclusive [falling, partial curve]"
same,Potency,[2],"inconclusive [cytotoxic, partial curve]"
same,Potency,[6],"inconclusive [cytotoxic, partial curve]"
same,Potency,[7],active: 15.8 µM
O[C@@H](COc1cccc2ncccc12)CN1CCN(C2c3ccccc3[C@@H]3[C@H](c4ccccc42)C3(F)F)CC1 (stereo partly drawn),Potency,[1],"inconclusive [cytotoxic, partial curve, poor fit]"
same,Potency,[3],"inconclusive [falling, single point]"
same,Potency,[2],"inconclusive [cytotoxic, partial curve, poor fit]"
same,Potency,[6],"inconclusive [cytotoxic, single point]"
CCCC(=O)OC[C@@H](OC(=O)CCC)[C@@H](OC(=O)CCC)[C@H](Cn1c2nc(=O)[nH]c(=O)c-2nc2cc(C)c(C)cc21)OC(=O)CCC,Potency,[1],"inconclusive [cytotoxic, partial curve]"
same,Potency,[3],"inconclusive [falling, partial curve]"
same,Potency,[4],active: 21.3 µM
same,Potency,[6],"inconclusive [cytotoxic, partial curve, poor fit]"
C=C[C@](C)(O)CC[C@@H]1[C@@]2(C)CCCC(C)(C)[C@@H]2CC[C@@]1(C)O,Potency,[1],active: 19.5 µM
same,Potency,[3],active: 49 µM
same,Potency,[2],active: 21.9 µM
same,Potency,[4],"inconclusive [activator, single point]"
same,Potency,[8],active: 54.9 µM
same,Potency,[6],active: 54.9 µM
CC1=NN(c2ccc(S(=O)(=O)O)cc2)C(=O)C1N=Nc1ccccc1 (stereo not drawn),Potency,[1],"inconclusive [cytotoxic, partial curve]"
same,Potency,[3],inactive
same,Potency,[2],"inconclusive [cytotoxic, partial curve]"
CCOC(=O)N1CCC(n2c(=O)[nH]c3cc(Cl)ccc32)CC1,Potency,[1],"inconclusive [cytotoxic, partial curve]"
same,Potency,[2],"inconclusive [cytotoxic, partial curve]"
O=Cc1ccc(Cl)c(Cl)c1,Potency,[1],"inconclusive [cytotoxic, partial curve, poor fit]"
same,Potency,[2],"inconclusive [cytotoxic, partial curve, poor fit]"
CN(C)CCN1CCN(c2cccc(Cl)c2)C1=O,Potency,[1],"inconclusive [cytotoxic, single point]"
same,Potency,[2],"inconclusive [cytotoxic, single point]"
C=CC(=O)OCCOCC(CC)(COCCOC(=O)C=C)COCCOC(=O)C=C,Potency,[1],active: 18.1 µM
same,Potency,[3],"inconclusive [falling, full curve]"
same,Potency,[4],"inconclusive [activator, partial curve, poor fit]"
same,Potency,[7],"inconclusive [activator, single point]"
CCn1c2ccccc2c2cc([N+](=O)[O-])ccc21,Potency,[1],"inconclusive [cytotoxic, partial curve]"
same,Potency,[3],"inconclusive [falling, partial curve, poor fit]"
same,Potency,[5],inactive
Cc1cccc(Nc2ccccc2)c1,Potency,[1],"inconclusive [cytotoxic, partial curve, poor fit]"
same,Potency,[3],"inconclusive [falling, partial curve, poor fit]"
same,Potency,[4],active: 38.9 µM
